The full ranking holds about 110,000 compounds; the median of “z-score” is about -0.1, and the highest 2% start at about 2. The list shows a part of the results. Activity calls are given as the source filed them.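 The calls were made as follows: active = z-score in the third read window above 3 or below -3; inactive = the rest.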

The target of this assay is Metabotropic glutamate receptor 8 (Rattus norvegicus) (UniProt P70579). The assay can be described thus: mGluR8 Gi/Go-coupled signaling modulation – cell-based, rat, thallium flux, HTS, primary screen (AID 488969). Particulars: HEK293 rat mGluR8, GIRK (G protein-gated inwardly rectifying potassium channel) thallium flux, FluoZin2; at 10 µM; stronger effect = higher value; submaximal glutamate (EC20) added with thallium.
Chain of UniProt P70579 (P70579 whole entry, looked up): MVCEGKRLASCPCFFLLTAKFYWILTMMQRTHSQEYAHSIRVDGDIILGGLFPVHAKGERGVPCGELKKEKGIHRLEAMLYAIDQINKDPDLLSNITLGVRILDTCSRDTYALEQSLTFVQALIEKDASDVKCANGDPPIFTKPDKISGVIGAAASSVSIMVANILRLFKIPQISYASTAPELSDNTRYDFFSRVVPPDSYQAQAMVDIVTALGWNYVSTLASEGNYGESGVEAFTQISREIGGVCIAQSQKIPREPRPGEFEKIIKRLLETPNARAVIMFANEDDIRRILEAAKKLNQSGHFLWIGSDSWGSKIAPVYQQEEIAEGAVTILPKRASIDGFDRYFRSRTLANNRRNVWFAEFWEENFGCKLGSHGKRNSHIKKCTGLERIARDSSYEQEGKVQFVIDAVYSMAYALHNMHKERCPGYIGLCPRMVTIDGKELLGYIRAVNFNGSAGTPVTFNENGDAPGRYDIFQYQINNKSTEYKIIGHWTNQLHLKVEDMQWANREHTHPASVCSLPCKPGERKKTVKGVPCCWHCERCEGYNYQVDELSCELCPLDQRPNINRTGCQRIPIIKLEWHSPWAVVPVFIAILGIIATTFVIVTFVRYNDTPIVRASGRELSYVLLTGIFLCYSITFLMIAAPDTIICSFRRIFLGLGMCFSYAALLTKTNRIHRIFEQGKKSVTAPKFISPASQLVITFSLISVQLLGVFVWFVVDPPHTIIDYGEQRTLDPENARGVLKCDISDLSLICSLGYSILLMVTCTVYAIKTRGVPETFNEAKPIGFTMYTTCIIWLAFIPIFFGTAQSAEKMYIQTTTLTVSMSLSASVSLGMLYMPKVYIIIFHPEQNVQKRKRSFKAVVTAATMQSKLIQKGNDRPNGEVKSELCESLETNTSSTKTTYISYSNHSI
For the compound `O=C(CCc1nc2ccccc2[nH]c1=O)OCc1ccc(S(=O)(=O)N2CCOCC2)cc1`, the z-score was -0.269. The same measure for `Cc1ccc(NC(=O)CN(C)S(=O)(=O)c2cccs2)cc1F`: 1.63; for `O=S(=O)(NCc1cc(-c2ccc(Cl)cc2)no1)c1ccc(Cl)cc1`: 0.0786; for `Cc1c(C(=O)N2CCc3ccccc32)oc2c1C(=O)CC(C)(C)C2`: -0.627. `O=C(NNC(=O)c1cccnc1)Nc1cccc(Cl)c1Cl` yielded a z-score of -0.606. Next, `Cc1nn(CC(=O)Nc2ccc(C(=O)N(C)C)cc2)c(=O)c2ccccc12`: -0.0892.

In turn, `Cc1ccc(S(=O)(=O)Nc2c(C)[nH]c(=O)[nH]c2=O)cc1C` registered a z-score of -0.15. `Cc1cc(-c2ccccc2)nc2[nH]n(-c3ccccc3)c(=O)c12` returned a z-score of -0.196. The same measure for `CCOC(=O)CC(=O)Nc1c(C)cc(C)cc1C`: 0.312. Regarding `Oc1ccc(N=Nc2cccc(Cl)c2)cc1C=Nc1ccc(N2CCOCC2)cc1`, the z-score is -0.0987.

In turn, `Cc1nn(Cc2ccccc2)c(C)c1NC(=O)CSc1n[nH]c(C)c1[N+](=O)[O-]` displayed a z-score of -0.0292. Next, `O=c1[nH]nc(SCc2ccccc2)c(=O)[nH]1`: -0.199; `CCOC(=O)Cc1csc(NC(=O)CSc2nc(N)c3c(C)c(C)sc3n2)n1`: -0.0512. The compound `COc1cccc(NC(=S)N(CCCN2CCOCC2)Cc2cn(C)c3ccccc23)c1` had a z-score of -0.541. `c1ccc(-n2ncc3c(NCc4ccc5c(c4)OCO5)ncnc32)cc1` returned a z-score of 0.0779. `CCOC(=O)c1[nH]c2ccccc2c1NC(=O)CCN1CCN(C(=O)OCC)CC1` yielded a z-score of 1.14. Next, `CC1(C)CC(=O)C2=C(C1)OC(/N=C/N1CCOCC1)=C(C#N)C2c1ccccc1` (stereo not given): active: -4.24; `CCCN1CCN(S(=O)(=O)c2ccc(OC)c(Br)c2)CC1`: -0.148. The same measure for `CSc1ccc(CN(C)CC(=O)Nc2cccc(Br)c2)cc1`: -0.107.

As for `Nc1nc2c(s1)C(=O)CC(c1ccccc1)C2` (stereo not given), the z-score amounted to 0.0058. Take `O=C1NC(Nc2nc3ccccc3s2)(C(F)(F)F)C(=O)N1C1CCCCC1` (stereo not given): the z-score turned out to be 0.11. The same measure for `O=C(c1ccc(F)cc1)N(NC(=O)C(O)(c1ccccc1)c1ccccc1)c1ccccc1`: -0.654; for `O=C1OCCC1Sc1nc2ccccc2s1` (stereo not given): -1.76; for `CCOc1ccc(NC(=O)CNc2ccc(C)cc2Cl)cc1`: -0.199. `O=C(NCc1ccco1)c1ccc(COc2cc(Cl)ccc2Cl)cc1` gave a z-score of 0.104. The same measure for `CC(C)n1c(SCC(=O)Nc2ccccc2)nc2c1c(=O)n(C)c(=O)n2C`: -0.27; for `Cc1[nH]nc(-c2ccc(O)c(C)c2O)c1Oc1ccccc1`: 0.136; for `O=C(O)C(c1ccccc1)C1(O)CCCC1` (stereo not given): -0.0456. `Cc1ccc(OCCOCCOc2ccc(Br)cc2/C=N\NC(=O)c2ccncc2)cc1` registered a z-score of -0.161. `CCC(=O)Nc1cc(-c2nn(C)c(=O)c3ccccc23)ccc1OC` yielded a z-score of -0.769. On to `CC(NC(=O)C1CCN(S(=O)(=O)c2cc([N+](=O)[O-])ccc2Cl)CC1)c1ccccc1` (stereo not given), for which the z-score is -0.238. Turning to `CCN(CC)S(=O)(=O)c1ccc2c3c(cccc13)C(=O)S2`, the z-score is 0.0309.

Compound `Oc1ccc(CNC2CCCCC2)cc1` came in with a z-score of -0.116. Next, `c1ccc(C(c2nnnn2C2CCCCC2)N2CCc3ccccc3C2)nc1` (stereo not given): -0.238; `C=CCOc1c(Br)cc(/C=N/Nc2ccc(C(=O)O)cc2)cc1OCC`: -0.793; `O=C(Nc1ccn(Cc2ccccc2)n1)c1n[nH]c([N+](=O)[O-])c1Cl`: -0.885.

`Cc1ccn2cc(-c3ccc(NS(=O)(=O)c4ccccc4)cc3)nc2c1` had a z-score of 0.0733.

With `CCOc1ccc(N(CC)S(=O)(=O)c2ccc3c(c2)oc(=O)n3C)cc1`, the z-score was determined as 0.841. In turn, `CC1CCCCN1CC(=O)Nc1sccc1C#N` (stereo not given) gave a z-score of -0.0952. `Clc1ccc(/C=C/c2nc3ccccc3[nH]2)cc1`: the z-score is -0.859. Next, `CC(=O)c1ccc(OCCCC(=O)Nc2ccc(C)c(S(=O)(=O)N(C)C)c2)cc1`: 0.136; `Cc1nc(NC2=NC(C(=O)Nc3ccc(Cl)cc3)CC(=O)N2)nc2ccccc12` (stereo not given): -0.199.

For the compound `Cc1ccc(C)c(SCc2noc(C(=O)NC(C)C)c2C(=O)O)c1`, the z-score was -0.151. The same measure for `CCN(CC)C(C)C(=O)Nc1c2c(cc3c1CCC3)CCC2` (stereo not given): 0.178; for `Cc1nc2ccccc2nc1SCC(=O)N1CCC(C)CC1`: -0.613; for `COc1cccc(C(=O)Nc2cnc(NC(=O)c3ccco3)cc2C)c1`: -0.117. For `Cc1nnc(NC(=O)C2CCCN(S(=O)(=O)c3ccccc3C(F)(F)F)C2)s1` (stereo not given), the z-score was -0.201.

In the case of `CC(/C=N/NC(=O)Cc1cccn1C)=C\c1ccco1`, the z-score was -0.21.

For the compound `CCCN1C(=O)CN(C2CCCCCC2)C(=O)C1c1ccc(C)cc1` (stereo not given), the z-score is -0.153.

`CSc1nnc(CNC(=O)C23CC4CC(CC(C4)C2)C3)n1Cc1ccccc1` had a z-score of -0.331. Next, `COc1ccc(/C(N)=N/OC(=O)CSc2ccc(C)cc2)cc1OC`: -0.375; `COc1ccc2cc(CN(Cc3cccs3)Cc3nnnn3Cc3ccccc3)c(=O)[nH]c2c1`: 0.659; `COC(=O)c1ccc(/C=C/c2ccc3cccc(OC)c3n2)cc1`: -0.279.

The compound `O=C(c1cccnc1)N1CCN(S(=O)(=O)c2ccc(S(=O)(=O)N3CCCC3)cc2)CC1` showed a z-score of -0.359. The same measure for `CCOC(=O)N1CCN(C(=O)c2ccc3c(c2)sc2nc(-c4ccccc4)cn23)CC1`: -1.02; for `S=C(NNc1ccc2ccccc2c1)NC1CCCCC1`: 0.484; for `CC(C)(C)c1ccc(-c2conc2N)cc1`: 2.09. In turn, `CCC(C)(C)n1nnnc1CN1CCc2ccccc21` had a z-score of 0.382.

As for `COC(=O)c1ccc(C(=O)OC)c(NC(=O)COC(=O)c2ccc(OC)c(OC)c2OC)c1`, the z-score is 0.323. Next, `O=C(CC(c1ccccc1)c1ccccc1)Nc1ccc(Cl)cn1`: -0.00571.

For the compound `COCCCNc1nc2c(c(=O)[nH]c(=O)n2C)n1CC(O)COc1ccccc1C` (stereo not given), the z-score was 1.05.

Turning to `Cc1nn(Cc2ccccc2Cl)c(C)c1NC(=O)/C=C/c1cnn(C)c1`, the z-score was -0.0832.

`O=S(=O)(NCc1ccco1)N1CCOCC1` registered a z-score of 0.458. On to `Cc1ccc(/C=N/NC(=O)c2cc(C3CC3)nc3ccccc23)o1`, for which the z-score was -0.0767. The same measure for `N#CC1=C(S)N=C(N)C(c2nc(-c3ccccc3)cs2)C12CCCCC2` (stereo not given): -0.242.

The compound `Cc1nc2nc(C)c(CCC(=O)N3CCN(c4ccccc4)CC3)c(C)n2n1` came in with a z-score of -0.107. Next, `CCCc1nn(C(=O)c2ccccc2)c2c1C(=O)CC(C)(C)C2`: 0.0989; `CCOC(=O)N1CCN(C(=O)C2CC(c3cc(OC)ccc3OC)=NO2)CC1` (stereo not given): -0.594; `Nc1cc(=O)[nH]c(SCC(=O)Nc2cccc(Cl)c2)n1`: 0.151.

`COc1cc(CCN2C(=O)c3cccc4cccc(c34)C2=O)c(S(=O)(=O)N2CCCCCC2)cc1OC` yielded a z-score of -0.297.
